Test results from PMC4336329 (PLoS ONE, 2015).
Among all 310,000 compounds or so, about 14,000 (4.5%) showed an effect of 50% or more. Effects have a minus sign here. The list shows a part of the results.

Target: human ether-à-go-go-related gene (hERG) potassium channel (human, UniProt Q12809)
Test: primary screen, population patch clamp on CHO cells stably expressing hERG
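Further: peak tail current of the secondary pulse compared with the same well before compound.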

Sequence of human ether-à-go-go-related gene (hERG) potassium channel (Q12809 whole entry, looked up): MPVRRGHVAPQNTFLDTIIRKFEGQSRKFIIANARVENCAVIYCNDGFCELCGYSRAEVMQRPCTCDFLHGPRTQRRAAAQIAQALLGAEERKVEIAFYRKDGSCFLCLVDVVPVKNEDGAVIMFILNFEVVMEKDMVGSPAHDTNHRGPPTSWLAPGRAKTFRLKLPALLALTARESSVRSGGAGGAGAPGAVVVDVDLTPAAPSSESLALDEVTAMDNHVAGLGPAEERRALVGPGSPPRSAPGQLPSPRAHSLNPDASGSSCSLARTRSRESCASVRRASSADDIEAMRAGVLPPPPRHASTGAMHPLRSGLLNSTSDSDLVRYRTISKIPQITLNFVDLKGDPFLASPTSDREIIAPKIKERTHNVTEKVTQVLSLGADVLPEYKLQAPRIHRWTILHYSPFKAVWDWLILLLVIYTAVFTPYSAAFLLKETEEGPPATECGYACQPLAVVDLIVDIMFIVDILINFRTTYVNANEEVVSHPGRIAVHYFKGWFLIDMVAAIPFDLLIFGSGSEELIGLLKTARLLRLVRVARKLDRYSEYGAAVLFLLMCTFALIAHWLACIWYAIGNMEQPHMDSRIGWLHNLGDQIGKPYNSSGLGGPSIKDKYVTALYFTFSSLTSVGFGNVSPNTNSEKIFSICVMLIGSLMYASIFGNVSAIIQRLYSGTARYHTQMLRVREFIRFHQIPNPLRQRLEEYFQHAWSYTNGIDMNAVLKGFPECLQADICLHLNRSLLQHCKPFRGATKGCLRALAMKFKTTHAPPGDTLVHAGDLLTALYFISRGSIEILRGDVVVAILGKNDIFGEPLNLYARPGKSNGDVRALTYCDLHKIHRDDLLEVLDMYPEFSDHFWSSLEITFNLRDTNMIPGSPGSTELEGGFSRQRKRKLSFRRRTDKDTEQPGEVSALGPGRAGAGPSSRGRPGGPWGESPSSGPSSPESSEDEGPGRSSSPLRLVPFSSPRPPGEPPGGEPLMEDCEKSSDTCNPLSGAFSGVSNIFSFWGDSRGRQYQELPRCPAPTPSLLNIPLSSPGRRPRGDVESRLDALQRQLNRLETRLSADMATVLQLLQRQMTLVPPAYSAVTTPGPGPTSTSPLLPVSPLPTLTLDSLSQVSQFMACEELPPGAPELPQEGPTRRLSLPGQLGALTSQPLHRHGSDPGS

Compound	hERG current change (%, negative = inhibition) at 10uM
COc1cccc(C(=O)NN2CC(O)=C(c3nc4ccccc4s3)C2=N)c1	14.7%
COc1ccc(/C=N/NS(=O)(=O)c2ccc(C)cc2)cc1OC(=O)c1ccccc1	-8.72%
Nc1ccc2nn(-c3ccc(Cl)cc3)nc2c1	-1.58%
C/C(=N\NC(=O)c1cccc(S(=O)(=O)N2CCOCC2)c1)c1ccc(OCC(=O)N(C)C)cc1	21.3%
CCCN(CC(=O)Nc1ccccc1OC)C(=O)CCCN1C(=O)c2ccccc2C1=O	-17.5%
CCOC(=O)Nc1ccc2c(COC(=O)CNS(=O)(=O)c3cccc(Br)c3)cc(=O)oc2c1	5.51%
CCCn1c(CCc2ccccc2)n[nH]c1=S	5.81%
CCOc1ccc(NC(=O)CN2C(=O)NC(C)(c3ccc(OC(F)F)cc3)C2=O)cc1 (stereo not shown)	-16.1%
CN(C)c1ccc(/C=N/NC(=O)CN(c2cccc(Cl)c2)S(C)(=O)=O)cc1Br	12.4%
O=C1CN(C(=O)CNC(=O)c2ccc(Cl)cc2Cl)CCN1	9.86%
Cc1oc(-c2ccccc2Cl)nc1CS(=O)CC(=O)NCc1ccc(Cl)cc1 (stereo not shown)	-11.2%
C=CCn1c(=S)[nH]c2cc(C(=O)Nc3ccc(F)cc3)ccc2c1=O	6.54%
Cc1cc(NC(=O)CCN2CCN(C)CC2)ccc1Br.Cl	-7.85%
O=C(Cn1cnc2sc(-c3ccccc3)cc2c1=O)NCc1ccccc1	3.58%
CCOC(=O)c1cc(C(=O)Nc2sc3c(c2C#N)CCCC3)nn1C	12.4%
CCOc1ccc(/C=N/NC(=O)c2nnn(-c3nonc3N)c2CN2CCC(C)CC2)cc1	-7.36%
Cc1cccc(C(=O)N(Cc2nc3ccccc3c(=O)[nH]2)C2CCCCC2)c1	-35.1%
N#Cc1cn(CC(=O)N2CCCC2)c2ccccc12	8.6%
O=C(c1ccccc1)c1nnc(-c2ccncc2)o1	-1.78%
COC(=O)c1ccc(COc2ccc(/C=N/O)cc2OC)o1	-29.5%
CSCCC(NC(=O)COc1ccccc1)C(=O)OCCOc1ccc(Br)cc1 (stereo not shown)	-9.76%
CCCCC1=CC2=C(c3ccco3)C(=O)C(C)(OC(=O)c3ccc(OC)cc3)C(=O)C2=CN1c1ccc(OC)cc1 (stereo not shown)	0.413%

Compound	hERG current change (%, negative = inhibition) at 10uM
COc1ccc(CNCc2cccn2C)cc1.Cl	-4.97%
COc1ccc(CCNC(=S)N2CCN(S(=O)(=O)c3ccc(F)cc3)CC2)cc1	-3.29%
Cc1ccc2cc(/C=C3\N=C(c4ccccc4)OC3=O)c(N3CCOCC3)nc2c1	11.6%
COc1ccc(C(=O)NC2CC2)cc1OC1CCN(Cc2ccc(F)cc2F)CC1	-81.5%
CCC(Oc1ccc(Cl)cc1)C(=O)N1CC(=O)Nc2ccccc21 (stereo not shown)	-0.0578%
CS(=O)(=O)N1CCC(NC(=O)Cc2ccccc2)CC1	14.9%
COc1ccc(C2(c3ccc(OC)cc3)NC(=O)N(CC(=O)NCC(C)c3ccccc3)C2=O)cc1 (stereo not shown)	9.02%
COc1cccc(C(c2sc3nc(C)nn3c2O)N2CCN(c3ccccc3F)CC2)c1 (stereo not shown)	-14.9%
CCOC(=O)N1CCN(c2nc3ccccn3c(=O)c2C=O)CC1	8.85%
O=C(O)C1CCCN(C(=O)c2cccc3ccccc23)C1 (stereo not shown)	6.76%
CC(=O)c1cc(CN2CCC(n3nccc3NC(=O)c3ccccc3)CC2)cs1	-10.9%
CC(C)(C)NS(=O)(=O)c1ccc(C(=O)Nc2ccc3c(c2)OCO3)cc1	2.59%
CCN(CC(=O)NCc1cccs1)C(=O)/C=C/c1cccc(OC)c1OC	-6.85%
COc1ccc(NC(=O)CSc2ncnc3c2cnn3Cc2ccccc2)cc1OC	23.1%
COc1ccccc1Cn1c(CO)nc2ccccc21	-0.932%
COc1ccc(C(C(=O)NC(C)(C)C)N(C(=O)CNC(=O)c2cccs2)c2ccc(C(C)C)cc2)cc1OC (stereo not shown)	-7.95%
O=C(NC1=NCCS1)C1CC(=O)N(c2ccc(F)cc2)C1 (stereo not shown)	9.9%
Cc1ccc(-n2nc3c(c2NC(=O)c2ccc4c(c2)OCO4)CS(=O)(=O)C3)cc1	-5.49%
CN(CCOc1ccccc1)C(=O)CCc1nc2sc3c(c2c(=O)[nH]1)CCCC3	15.9%
O=C(/C=C/c1ccc(F)cc1)NC(=S)Nc1ccccc1C(=O)NC1CCCCC1	2.56%
Cc1ccc(Cl)cc1N1CCN(C(=O)CCS(=O)(=O)c2ccc3c(c2)NC(=O)CO3)CC1	-10.9%
CNC(=O)CCCCC(=O)N/N=C/c1ccc(Cl)cc1Cl	-11.3%

Compound	hERG current change (%, negative = inhibition) at 10uM
COC(=O)c1[nH]c2ccc(C)cc2c1NC(=O)CN1CCc2cc(OC)c(OC)cc2C1	-9.69%
Cn1ncc(Cl)c1C(=O)N1CCN(S(=O)(=O)c2ccc(Cl)s2)CC1	-33.7%
Cl.O=C(CN1CCN(C2CCCCC2)CC1)Nc1ccccc1N1CCCCC1	-66.2%
Cc1ccc(-c2c3c(=O)n(C)c(=O)n(C)c3cn2-c2ccccc2O)cc1	6.49%
O=c1c2c3nc4ccccc4nc3n(CC3CCCO3)c2ncn1CCc1ccccc1 (stereo not shown)	-5.67%
CCOc1cc(CN2CCCC(N3CCc4ccccc4C3)C2)ccc1O (stereo not shown)	-21.4%
O=C(CCN1CCN(c2ccc(Cl)cc2)CC1)Nc1nccs1	-13.3%
CC(=O)N1CCN(C23CC4CC(CC(C4)C2)C3)CC1	12.3%
CCOC(=O)[C@H]1[C@H]2COc3ccc(C)cc3[C@@H]2N2C(=O)CN(Cc3ccc(F)cc3)C(=O)[C@@]12C	-10.8%
Cc1ccc(OCC(=O)OC2CCCN(C)C2)cc1.Cl (stereo not shown)	11.6%
CCOc1ccc2nc(N3CCC(C(=O)N4CCC5(CC4)OCCO5)CC3)sc2c1	-8.46%
CC1(C)Oc2ccc3ccc(=O)oc3c2/C(=C/Nc2ccc(O)cc2)C1=O	27.2%
CCCCOc1ccc(-c2nnn(CCC(=O)N3CCOCC3)n2)cc1	-45.4%
CC(=O)N(C(C)=O)n1c(/C=C/c2ccc([N+](=O)[O-])cc2)nc2ccccc2c1=O	-18.8%
COc1ccccc1C(=O)NC(=O)CSc1nnc(C)s1	17.5%
N#CC(c1ccccc1F)(c1ncc(C(F)(F)F)cc1Cl)N1CCOCC1 (stereo not shown)	-4.31%
COC(=O)c1c(NC(=O)C(=O)N2CCOCC2)sc2c1CCC2	19.3%
CCN(CC)C(=O)N1c2ccccc2Sc2ccccc21	-2.13%
CC(C)n1c(NCc2cccs2)nc2ccccc21	-12.6%
CC(=Nc1ccccc1C)C1=C(O)CSC1=O	-1.32%
NNC(=O)c1ccc(COc2ccc3c(c2)CCC3)cc1	-32.6%
COc1ccc(NC(=O)c2csc(Cc3ccc(Cl)cc3)n2)cc1	19.9%

Compound	hERG current change (%, negative = inhibition) at 10uM
CCC1CCCCN1C(=O)CSc1nc2c(c(=O)n(C)c(=O)n2C)n1C (stereo not shown)	-15.4%
CN(c1ccc(C(=O)NCCSC(C)(C)C)cc1)S(=O)(=O)c1ccccc1	-25.2%
CCOc1ccc(NC(=O)CN2C(=O)S/C(=C/c3cccn3C)C2=O)cc1	13.6%
Cc1ccc(-n2nnnc2SCC(=O)c2c(N)n(C3CC3)c(=O)[nH]c2=O)cc1	10.8%
CCN(CC)S(=O)(=O)c1ccc(C(=O)N2CCN(C(=O)c3ccco3)CC2)cc1	-20.8%
COc1cc(C2C(C(=O)c3ccc(C)o3)=C(O)C(=O)N2CCc2ccccc2)ccc1O (stereo not shown)	-1.97%
CCNC(=O)/C(=C/c1cccc([N+](=O)[O-])c1)NC(=O)c1ccc(C)cc1	-58.1%
Cc1ccc(S(=O)(=O)CCC(=O)OCC(=O)N2CCc3ccccc32)cc1	1.19%
CCn1c(SCC(=O)N/N=C/c2cc(OC)c(OC)c(OC)c2)nc2ccccc21	-7.72%
Cc1ccnc(NC(=O)C2CC(=O)N(Cc3ccccc3)C2)c1 (stereo not shown)	4.61%
CCOC(=O)c1cn(-c2c(C)n(C)n(-c3ccccc3)c2=O)c2c(F)c(F)c(F)cc2c1=O	-2.68%
CCOc1ccccc1CN1CCN(C/C=C/c2ccc(OC)cc2)CC1CCO (stereo not shown)	-65%
Fc1cccc(NCCc2c[nH]c3ccccc23)n1	11.3%
CCCn1c(Oc2ccccc2)nc2c1c(=O)n(C)c(=O)n2C	1.01%
COc1cccc(NC(=O)CN(C)C(=O)Cc2n[nH]c(=O)c3ccccc23)c1	7.63%
O=C1c2ccccc2C(O)(Cc2ccccc2)N1C1CCCCC1 (stereo not shown)	1.8%
COc1ccccc1NC(=O)NC1(C(=O)N2CCOCC2)CCCCC1	16.9%
CCOC(=O)c1ccccc1NCN1C(=O)CSC1=O	17.3%
CCCCN(C)CCCNC(=O)Cn1c(=O)sc2ccccc21	-11.5%
